PubChem BioAssay AID1918931 (Molecular Pharmacology Branch, DTP, NCI, 2023)
Some entries of the source have several records that differ or are many. This is not the full list of results. An entry can have further records. Results that share an entry are repeated measurements in other runs, samples, wells, individuals or studies. Signs of the kind (2×) count equal records among those shown. A date in brackets names the month of the test.

Test system: 138582-337-R-J1-PDC complex spheroid viability
Experiment: Anticancer human tumor 138582-337-R-J1-PDC patient-derived Merkel cell tumor cell line growth inhibition
Conditions: for viability, T/C: stronger effect = lower value
Source text: Multicellular complex tumor spheroid response to LSD1 Inhibitor Iadademstat in combination with a variety of drugs and investigational agents in selected tumor cell lines
The current study was undertaken to assess response to LSD1 inhibitors in combination with standard-of-care drugs and investigational agents in solid tumor complex spheroid models as well as in the K-562 leukemia. Complex spheroids include a stromal component modeled by human endothelial cells (HUVEC) and fibroblasts modeled by human mesenchymal stem cells (MSCs). The concentration ranges selected for each drug and investigational agent were based upon clinically achievable concentrations if the clinical Cmax of the agent was known.
Compounds. The drugs and investigational agents used in this study are listed on Table 1. All of the agents used, including staurosporine (NSC755774) and gemcitabine (NSC613327), were obtained from the Developmental Therapeutics Program, NCI. FDA-approved anticancer drugs are available from the NCI at http://dtp.nci.nih.gov/branches/dscb/oncology_drugset_explanation.html. Drugs and investigational agents were >95% pure by proton nuclear magnetic resonance (NMR) and liquid chromatography/mass spectrometry (LC/MS). Stock solutions were prepared at 400x in DMSO, stored at -70 degrees C, and diluted in fresh medium prior to their use. The final concentration of DMSO in cell culture wells never exceeded 0.25% (v/v). The FDA-approved anticancer drug set is available from the Developmental Therapeutics Program at https://dtp.cancer.gov/organization/dscb/obtaining/available_plates.htm. All drugs and investigational agents were tested over a range starting from a high concentration at or near the clinical Cmax and decreasing in half-log increments. If the clinical Cmax for an agent had not been determined, the highest concentration tested was 10 microM.
Cell Lines. The patient-derived cancer cell (PDC) lines: 292921-168-R-J2-PDC, K24384-001-R-PDC, and 521955-158-R2-J5-PDC pancreatic carcinomas, 556581-035-R-J1 ovarian carcinoma, 324938-238-R-J1-PDC, 855422-203-R-J1-PDC and 883617-216-R-J1-PDC urothelial bladder carcinomas, 743489-274-T-PDC renal cell carcinoma, 138582-R-J1 Merkel cell tumor, K60290-347-R-J1 and K57222-313-R-J1-PDC glioblastomas, 653999-131-R-J2-PDC, LG0703-F948-PDC, and 349418-098-R-PDC non-small cell lung carcinomas, 885512-296-R-J2-PDC, 171881-019-R-J1-PDC breast carcinomas and 186277-243-T-J2-PDC and 233499-124-R-J2-PDC colon carcinomas were obtained from the NCI Patient-Derived Models Repository (PDMR, https://pdmr.cancer.gov). The established cell lines NCI/ADR-RES (RRID:CVCL_14520 and OVCAR-5 (RRID:CVCL_1628) ovarian carcinomas, 786-O (RRID:CVCL_1051) and A498 (RRID:CVCL_A498) renal cell carcinoma, NCI-H211 (ATCC, cat. CRL-5824; RRID:CVCL_1529), NCI-H196 (ATCC, cat. CRL-5823, RRID:CVCL_1509), SW 1271 (ATCC, cat. CRL-2177, RRID:CVCL_1716) and NCI-H1876 (ATCC, cat. CRL-5902, RRID:CVCL_1503) small cell lung carcinomas, MDA-MB-231 (RRID:CVCL_0062) and MDA-MB-468 (RRID:CVCL_0419)breast carcinomas (10-12). Pooled donor human umbilical vein endothelial cells (HUVEC, Lonza, cat. CC-2519) and human mesenchymal stem cells (hMSC, Lonza, cat. PT-2501) were purchased from Lonza (Walkersville, MD).
Cell Culture. All cells were maintained in an incubator at 37 degrees C and 5% CO2 with 95% humidity. The PDC lines were cultured according to standard operating procedures established by the NCI PDMR (https://pdmr.cancer.gov). Briefly all PDCs were thawed and cultured in Matrigel-coated flasks prepared with a working solution of 1X Ham's F-12 nutrient mix, without supplementation (Invitrogen, Waltham, MA, cat. 11765054), 100 U/mL penicillin-streptomycin (Invitrogen, cat. 15140122), and 2.5% Matrigel (Corning Inc., Corning, NY, cat. 354248) for the first three passages. […]
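Further: spheroids exposed to agents for 7 days.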
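Wherever viability, T/C is given: 100% = DMSO vehicle control viability.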

| SMILES | viability, T/C (compound alone 1 µM) | viability, T/C (compound alone 3.16 µM) | viability, T/C (compound alone 10 µM) | other results |
| --- | --- | --- | --- | --- |
| O=C(C=Cc1cccc(S(=O)(=O)Nc2ccccc2)c1)NO | – | – | – | viability, T/C (compound alone 3 µM): 6.82% [2022-01] and 80.9% [2022-02] |
| NC1CCC(NC2CC2c2ccccc2)CC1 (configuration not stated) | 89.8, 102 (2×), 90.1 (2×), 105, 108 (2×), 91.5, 114, 98.1, 93.3 (2×), 93.5, 100 (2×), 80.5, 86.2, 96.8, 90.5, 103, 94, 92.7, 87.3, 92.3% | 98.2, 94.7, 89.5, 105 (2×), 98.1, 96.8, 91.2, 108, 93.6, 104, 116, 92.2, 85.7, 109, 82.6, 91.9, 96.4, 97.8, 99, 97.7, 87, 97.3, 89.2, 80.5% | 77.7, 79.6, 78.2, 95.2, 92, 85.3, 84.1, 79.5, 88.9, 99.5, 70.9, 80.7, 85.6, 90.1, 90.8, 89.9, 86.9, 83.4, 75.6, 80.8, 82.8, 76.4, 71.7% | viability, T/C (compound alone 0.1 µM): 88, 89.6, 108, 112, 95.5, 91, 104 (3×), 98.5 (2×), 93.1, 102 (2×), 117, 86.4, 89.3, 85.8, 106, 111, 90.8, 83.5, 91.8, 88.1, 90% |
| CC1(C)CCC(CN2CCN(c3ccc(C(=O)NS(=O)(=O)c4ccc(NCC5CCOCC5)c([N+](=O)[O-])c4)c(Oc4cnc5[nH]ccc5c4)c3)CC2)=C(c2ccc(Cl)cc2)C1 | – | – | 79.6% [2022-01] and 2.83% [2022-02] | – |
| CC(C)CC(NC(=O)C(Cc1ccccc1)NC(=O)c1cnccn1)B(O)O (configuration not stated) | – | – | – | viability, T/C (compound alone 0.001 µM): 45% [2022-01] and 0.75% [2022-02] |
| CC1COCCN1c1cc(-c2ccnn2C)c2ccnc(-c3ccn[nH]3)c2n1 (configuration not stated) | – | – | – | IC50 (compound alone): 505 nM [2022-01] and 30.2 nM [2022-02] |
| NC1CC1c1ccc(-c2cccc(O)c2)cc1 (configuration not stated) | 70.7, 69.8, 80.5, 81, 74.2, 73.5, 62.6, 87.7, 86.3, 102, 88.6 (2×), 83.3, 60.5, 64.6, 71.9, 79.8, 61, 57.4, 83.5, 71.6, 63.2, 85.2, 75.2, 74.4% | 74, 79.6, 86.7, 79.2, 87.6, 74.3 (2×), 88.5, 93.8, 81.9, 95.4, 98.8, 71.1, 84.7, 75, 90.3, 89.8, 78.1, 81.8, 76.7, 75.1, 65, 70.9, 72.2, 77.4% | 77.8, 78.1, 71.7, 77, 75.9, 69.1, 83.3, 93.8, 101, 104, 87.8, 118, 85.1, 95.7, 90, 97.9, 89.3, 81.4, 85.4, 79.2, 72.3, 77.7, 94.5, 88.8, 90.3% | viability, T/C (compound alone 0.316 µM): 70, 71.9, 84.7, 72.6, 79.8, 67.1, 78, 73.3, 81, 89.1, 76.5, 99.4, 60.1, 77.7, 68.2, 73.8, 79.5, 69.5, 67.3, 82.3, 73.6, 83.3, 81.1, 80.7% |
